To fix the notation:
B1: murG V122D (protein)
chain: MSGQGKRLMVMAGGTGGHVFPGLAVAHHLMAQGWQVRWLGTADRMEADLVPKHGIEIDFIRISGLRGKGIKALIAAPLRIFNAWRQARAIMKAYKPDVVLGMGGYVSGPGGLAAWSLGIPVDLHEQNGIAGLTNKWLAKIATKVMQAFPGAFPNAEVVGNPVRTDVLALPLPQQRLAGREGPVRVLVVGGSQGARILNQTMPQVAAKLGDSVTIWHQSGKGSQQSVEQAYAEAGQPQHKVTEFIDDMAAAYAWADVVVCRSGALTVSEIAAAGLPALFVPFQHKDRQQYWNALPLEKAGAAKIIEQPQLSVDAVANTLAGWSRETLLTMAERARAASIPDATERVANEVSRVARA
B2: murG V185D (protein)
chain: MSGQGKRLMVMAGGTGGHVFPGLAVAHHLMAQGWQVRWLGTADRMEADLVPKHGIEIDFIRISGLRGKGIKALIAAPLRIFNAWRQARAIMKAYKPDVVLGMGGYVSGPGGLAAWSLGIPVVLHEQNGIAGLTNKWLAKIATKVMQAFPGAFPNAEVVGNPVRTDVLALPLPQQRLAGREGPVRDLVVGGSQGARILNQTMPQVAAKLGDSVTIWHQSGKGSQQSVEQAYAEAGQPQHKVTEFIDDMAAAYAWADVVVCRSGALTVSEIAAAGLPALFVPFQHKDRQQYWNALPLEKAGAAKIIEQPQLSVDAVANTLAGWSRETLLTMAERARAASIPDATERVANEVSRVARA
B3: murG V187Q (protein)
chain: MSGQGKRLMVMAGGTGGHVFPGLAVAHHLMAQGWQVRWLGTADRMEADLVPKHGIEIDFIRISGLRGKGIKALIAAPLRIFNAWRQARAIMKAYKPDVVLGMGGYVSGPGGLAAWSLGIPVVLHEQNGIAGLTNKWLAKIATKVMQAFPGAFPNAEVVGNPVRTDVLALPLPQQRLAGREGPVRVLQVGGSQGARILNQTMPQVAAKLGDSVTIWHQSGKGSQQSVEQAYAEAGQPQHKVTEFIDDMAAAYAWADVVVCRSGALTVSEIAAAGLPALFVPFQHKDRQQYWNALPLEKAGAAKIIEQPQLSVDAVANTLAGWSRETLLTMAERARAASIPDATERVANEVSRVARA
B4: murG L186A (protein)
chain: MSGQGKRLMVMAGGTGGHVFPGLAVAHHLMAQGWQVRWLGTADRMEADLVPKHGIEIDFIRISGLRGKGIKALIAAPLRIFNAWRQARAIMKAYKPDVVLGMGGYVSGPGGLAAWSLGIPVVLHEQNGIAGLTNKWLAKIATKVMQAFPGAFPNAEVVGNPVRTDVLALPLPQQRLAGREGPVRVAVVGGSQGARILNQTMPQVAAKLGDSVTIWHQSGKGSQQSVEQAYAEAGQPQHKVTEFIDDMAAAYAWADVVVCRSGALTVSEIAAAGLPALFVPFQHKDRQQYWNALPLEKAGAAKIIEQPQLSVDAVANTLAGWSRETLLTMAERARAASIPDATERVANEVSRVARA
B5: murG L186P (protein)
chain: MSGQGKRLMVMAGGTGGHVFPGLAVAHHLMAQGWQVRWLGTADRMEADLVPKHGIEIDFIRISGLRGKGIKALIAAPLRIFNAWRQARAIMKAYKPDVVLGMGGYVSGPGGLAAWSLGIPVVLHEQNGIAGLTNKWLAKIATKVMQAFPGAFPNAEVVGNPVRTDVLALPLPQQRLAGREGPVRVPVVGGSQGARILNQTMPQVAAKLGDSVTIWHQSGKGSQQSVEQAYAEAGQPQHKVTEFIDDMAAAYAWADVVVCRSGALTVSEIAAAGLPALFVPFQHKDRQQYWNALPLEKAGAAKIIEQPQLSVDAVANTLAGWSRETLLTMAERARAASIPDATERVANEVSRVARA
B6: murG V185P (protein)
chain: MSGQGKRLMVMAGGTGGHVFPGLAVAHHLMAQGWQVRWLGTADRMEADLVPKHGIEIDFIRISGLRGKGIKALIAAPLRIFNAWRQARAIMKAYKPDVVLGMGGYVSGPGGLAAWSLGIPVVLHEQNGIAGLTNKWLAKIATKVMQAFPGAFPNAEVVGNPVRTDVLALPLPQQRLAGREGPVRPLVVGGSQGARILNQTMPQVAAKLGDSVTIWHQSGKGSQQSVEQAYAEAGQPQHKVTEFIDDMAAAYAWADVVVCRSGALTVSEIAAAGLPALFVPFQHKDRQQYWNALPLEKAGAAKIIEQPQLSVDAVANTLAGWSRETLLTMAERARAASIPDATERVANEVSRVARA
B7: murG V185A (protein)
chain: MSGQGKRLMVMAGGTGGHVFPGLAVAHHLMAQGWQVRWLGTADRMEADLVPKHGIEIDFIRISGLRGKGIKALIAAPLRIFNAWRQARAIMKAYKPDVVLGMGGYVSGPGGLAAWSLGIPVVLHEQNGIAGLTNKWLAKIATKVMQAFPGAFPNAEVVGNPVRTDVLALPLPQQRLAGREGPVRALVVGGSQGARILNQTMPQVAAKLGDSVTIWHQSGKGSQQSVEQAYAEAGQPQHKVTEFIDDMAAAYAWADVVVCRSGALTVSEIAAAGLPALFVPFQHKDRQQYWNALPLEKAGAAKIIEQPQLSVDAVANTLAGWSRETLLTMAERARAASIPDATERVANEVSRVARA
B8: murG V185Q (protein)
chain: MSGQGKRLMVMAGGTGGHVFPGLAVAHHLMAQGWQVRWLGTADRMEADLVPKHGIEIDFIRISGLRGKGIKALIAAPLRIFNAWRQARAIMKAYKPDVVLGMGGYVSGPGGLAAWSLGIPVVLHEQNGIAGLTNKWLAKIATKVMQAFPGAFPNAEVVGNPVRTDVLALPLPQQRLAGREGPVRQLVVGGSQGARILNQTMPQVAAKLGDSVTIWHQSGKGSQQSVEQAYAEAGQPQHKVTEFIDDMAAAYAWADVVVCRSGALTVSEIAAAGLPALFVPFQHKDRQQYWNALPLEKAGAAKIIEQPQLSVDAVANTLAGWSRETLLTMAERARAASIPDATERVANEVSRVARA
B9: murG L186Q (protein)
chain: MSGQGKRLMVMAGGTGGHVFPGLAVAHHLMAQGWQVRWLGTADRMEADLVPKHGIEIDFIRISGLRGKGIKALIAAPLRIFNAWRQARAIMKAYKPDVVLGMGGYVSGPGGLAAWSLGIPVVLHEQNGIAGLTNKWLAKIATKVMQAFPGAFPNAEVVGNPVRTDVLALPLPQQRLAGREGPVRVQVVGGSQGARILNQTMPQVAAKLGDSVTIWHQSGKGSQQSVEQAYAEAGQPQHKVTEFIDDMAAAYAWADVVVCRSGALTVSEIAAAGLPALFVPFQHKDRQQYWNALPLEKAGAAKIIEQPQLSVDAVANTLAGWSRETLLTMAERARAASIPDATERVANEVSRVARA
B10: murG L186D (protein)
chain: MSGQGKRLMVMAGGTGGHVFPGLAVAHHLMAQGWQVRWLGTADRMEADLVPKHGIEIDFIRISGLRGKGIKALIAAPLRIFNAWRQARAIMKAYKPDVVLGMGGYVSGPGGLAAWSLGIPVVLHEQNGIAGLTNKWLAKIATKVMQAFPGAFPNAEVVGNPVRTDVLALPLPQQRLAGREGPVRVDVVGGSQGARILNQTMPQVAAKLGDSVTIWHQSGKGSQQSVEQAYAEAGQPQHKVTEFIDDMAAAYAWADVVVCRSGALTVSEIAAAGLPALFVPFQHKDRQQYWNALPLEKAGAAKIIEQPQLSVDAVANTLAGWSRETLLTMAERARAASIPDATERVANEVSRVARA
B11: murG V187A (protein)
chain: MSGQGKRLMVMAGGTGGHVFPGLAVAHHLMAQGWQVRWLGTADRMEADLVPKHGIEIDFIRISGLRGKGIKALIAAPLRIFNAWRQARAIMKAYKPDVVLGMGGYVSGPGGLAAWSLGIPVVLHEQNGIAGLTNKWLAKIATKVMQAFPGAFPNAEVVGNPVRTDVLALPLPQQRLAGREGPVRVLAVGGSQGARILNQTMPQVAAKLGDSVTIWHQSGKGSQQSVEQAYAEAGQPQHKVTEFIDDMAAAYAWADVVVCRSGALTVSEIAAAGLPALFVPFQHKDRQQYWNALPLEKAGAAKIIEQPQLSVDAVANTLAGWSRETLLTMAERARAASIPDATERVANEVSRVARA
B12: murG L186W (protein)
chain: MSGQGKRLMVMAGGTGGHVFPGLAVAHHLMAQGWQVRWLGTADRMEADLVPKHGIEIDFIRISGLRGKGIKALIAAPLRIFNAWRQARAIMKAYKPDVVLGMGGYVSGPGGLAAWSLGIPVVLHEQNGIAGLTNKWLAKIATKVMQAFPGAFPNAEVVGNPVRTDVLALPLPQQRLAGREGPVRVWVVGGSQGARILNQTMPQVAAKLGDSVTIWHQSGKGSQQSVEQAYAEAGQPQHKVTEFIDDMAAAYAWADVVVCRSGALTVSEIAAAGLPALFVPFQHKDRQQYWNALPLEKAGAAKIIEQPQLSVDAVANTLAGWSRETLLTMAERARAASIPDATERVANEVSRVARA
B13: murG V185W (protein)
chain: MSGQGKRLMVMAGGTGGHVFPGLAVAHHLMAQGWQVRWLGTADRMEADLVPKHGIEIDFIRISGLRGKGIKALIAAPLRIFNAWRQARAIMKAYKPDVVLGMGGYVSGPGGLAAWSLGIPVVLHEQNGIAGLTNKWLAKIATKVMQAFPGAFPNAEVVGNPVRTDVLALPLPQQRLAGREGPVRWLVVGGSQGARILNQTMPQVAAKLGDSVTIWHQSGKGSQQSVEQAYAEAGQPQHKVTEFIDDMAAAYAWADVVVCRSGALTVSEIAAAGLPALFVPFQHKDRQQYWNALPLEKAGAAKIIEQPQLSVDAVANTLAGWSRETLLTMAERARAASIPDATERVANEVSRVARA

± gives the standard deviation of the averaged measurements. Laboratory Escherichia coli strains with one amino-acid change in an essential protein, pooled on minimal glucose agar with carbenicillin or gentamicin at twice the control MIC (plus kanamycin and chloramphenicol for the plasmids), 48 h. Fold change of barcode share against drug-free plates; higher = less susceptible. Active = above 20 in both replicates (the paper's putatively resistant). '<' = one read or none on drug, '>' = one read or none on a drug-free plate. Shares are relative, so most strains fall below 1 when a few take over. Listed are strains with at least 15 reads on both drug-free plates, and hits; most hits rest on fewer reference reads. Replicate rank correlation about 0.5. Edits are read from barcodes.

The record followed here is the supplement of paper PMC11876631.

For the first series, the target named is Escherichia coli (laboratory strain). The experiment in a line: barcode share on antibiotic plates over drug-free plates; higher = less susceptible. The settings on record: antibiotic: carbenicillin; 2× MIC (3.1 µg/mL). The protocol:
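A pool of E. coli strains, each edited to carry one amino-acid change in an essential protein, was grown for 48 h on minimal glucose agar with or without antibiotic; strain barcodes were sequenced; mean of two replicates.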
In the case of B1, the “fold change of barcode share” value stood at 0.102 ± 0.05. On the same count and under the same terms, the result for B2 reads 0.211 ± 0.076. As for B3, the “fold change of barcode share” value turned out to be 0.299 ± 0.018. Consider B4, for which the “fold change of barcode share” value came to 0.278 ± 0.08. For the protein B5, the “fold change of barcode share” value amounted to 0.269 ± 0.0063. Turning to B6, the “fold change of barcode share” value was 0.82 ± 0.047. On to B7, for which the “fold change of barcode share” value worked out at 0.325 ± 0.058. B8: the “fold change of barcode share” value stood at 0.365 ± 0.011.

B9: the “fold change of barcode share” value stood at 0.26767 ± 0.00011. On the same count and under the same terms, as for B10, the figure is 0.604 ± 0.14; as for B11, 0.692 ± 0.018; as for B12, 0.695 ± 0.075. On to B13, for which the “fold change of barcode share” value amounted to 0.297 ± 0.15.

The same series, now with this note: antibiotic: gentamicin; 2× MIC (MIC 0.45 µg/mL).
As for B3, the “fold change of barcode share” value worked out at 0.00479 ± 0.0022.

As for B4, the “fold change of barcode share” value came to 0.397 ± 0.56. With B5, the “fold change of barcode share” value is less than 0.00232. Turning to B6, the “fold change of barcode share” value is less than 0.00965. Still for that read-out and setting: as for B7, the figure is less than 0.0163; as for B8, less than 0.00949.

As for B9, the “fold change of barcode share” value was less than 0.00195. On to B10, for which the “fold change of barcode share” value is 0.0196 ± 0.017. In the case of B11, the “fold change of barcode share” value is 0.00347 ± 0.0016. As for B12, the “fold change of barcode share” value amounted to 0.00585 ± 0.0024. Same read-out and setting: the result for B13 reads 0.00693 ± 0.0014.
